In PMC6919601, “Identification of Plasmodium dipeptidyl aminopeptidase allosteric inhibitors by high throughput screening” (PLoS ONE, 2019):
In all, about 110,000 compounds went through this assay and about 230 (0.21%) showed an effect of 50% or more. The list shows a part of the results.

biological target: DPAP1 (Plasmodium falciparum, UniProt Q8IIJ9); assay: primary screen, percent inhibition; read by cleavage of a fluorogenic dipeptide substrate; higher = more effect of the substance; parameters: species or system P. falciparum D10 trophozoite lysates; single well
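Note: 30 min substrate incubation versus DMSO and 10 µM JCP410 controls.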

DPAP1, sequence (Q8IIJ9 whole entry, looked up): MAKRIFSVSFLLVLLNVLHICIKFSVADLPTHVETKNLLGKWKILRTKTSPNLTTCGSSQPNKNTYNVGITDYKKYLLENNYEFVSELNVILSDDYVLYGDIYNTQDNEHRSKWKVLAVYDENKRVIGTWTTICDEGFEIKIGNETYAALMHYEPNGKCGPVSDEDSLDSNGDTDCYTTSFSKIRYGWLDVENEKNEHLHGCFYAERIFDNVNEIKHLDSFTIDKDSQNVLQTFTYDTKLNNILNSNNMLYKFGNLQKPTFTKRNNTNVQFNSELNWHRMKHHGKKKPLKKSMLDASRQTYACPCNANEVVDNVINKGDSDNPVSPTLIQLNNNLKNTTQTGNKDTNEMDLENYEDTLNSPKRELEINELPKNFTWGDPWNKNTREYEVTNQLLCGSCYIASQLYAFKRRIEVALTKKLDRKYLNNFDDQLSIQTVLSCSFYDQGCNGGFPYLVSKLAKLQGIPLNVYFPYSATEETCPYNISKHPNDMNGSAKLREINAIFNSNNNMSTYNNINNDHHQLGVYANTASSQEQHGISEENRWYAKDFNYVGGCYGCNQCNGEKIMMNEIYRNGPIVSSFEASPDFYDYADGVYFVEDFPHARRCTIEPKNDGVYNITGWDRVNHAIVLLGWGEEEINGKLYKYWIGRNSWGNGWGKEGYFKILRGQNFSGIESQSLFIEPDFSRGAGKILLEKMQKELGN

Structure (SMILES)	% Inhibition @ 10 uM [%]
COc1ccc(N/C=C(/C#N)c2nc(-c3ccc(Br)cc3)cs2)cc1	2.01
CSc1cccc(NC(=O)CN(c2ccc(F)cc2)S(=O)(=O)c2ccc3c(c2)OCCO3)c1	-0.99
O=Cc1cn(CC(=O)NCCC2=CCCCC2)c2ccccc12	2.35
N#CC1=C(N)N(c2nc[nH]n2)C2=C(C(=O)CC(c3ccccc3)C2)C1c1cccnc1 (centres unmarked)	3.99
CC(C)CCNC(=O)Cn1cc(S(=O)(=O)Cc2ccccc2F)c2ccccc21	1.76
CCOC(=O)c1c(NC(=O)CSc2nc3nncc-3c(O)n2-c2ccccc2)sc(C)c1C	2.46
CSc1ccc(CNCCSc2nnnn2-c2ccccc2)cc1	2.05
CCc1c(CSC(=N)N)csc1C	-4.51
COc1ccc(NC(=O)CN(c2ccc(F)cc2)S(=O)(=O)c2ccccc2)cc1Cl	-10
N#CCNC(=O)[C@H](Cc1cc(I)c(O)c(I)c1)NC(=O)c1ccc(Br)cc1	-3.04
COc1ccc(C2CC(c3cccc(Br)c3)Nc3ncnn32)c(OC)c1 (centres unmarked)	-5.19
COc1cc(C(=O)Nc2ccccc2C(=O)Nc2ccccc2)cc(OC)c1OC	0.83
O=c1/c(=C/c2cccc3ccccc23)sc2nc(C3COc4ccccc4O3)nn12 (centres unmarked)	-3.33
COc1cccc2c1cc1c(=O)n(CC(=O)NCCCN3CCOCC3)nc(C)n12	1.68
CC1(C)CC(=O)c2c(nc3ccccc3c2N)C1	-1.42
CCOc1cc(-c2cc(N)n(S(=O)(=O)c3ccc(OC)c(OC)c3)n2)cc(OCC)c1OCC	2.34
CCCc1[nH]nc2c1C(c1ccc(Br)cc1)C(C#N)=C(N)O2 (centres unmarked)	-0.661
CN1C(=O)/C(=C/c2ccccc2)S/C1=N/c1cccc(C(=O)O)c1	5.42
CCOC(=O)C1=C(C)N=c2s/c(=C\c3cccc(OC)c3)c(=O)n2C1c1ccccc1 (centres unmarked)	-6.88
Cc1nn(-c2ccccc2)nc1C(=O)NCCCN1CCOCC1	-2.05
Cn1cccc1/C=C1\SC(=O)N(CC(=O)Nc2ccc(F)cc2)C1=O	6.7

Structure (SMILES)	% Inhibition @ 10 uM [%]
CC(CCc1ccccc1)NCC(C)(C)CN(C)C (centres unmarked)	-3.35
CCOc1ccccc1N(CC(=O)N1CCN(Cc2ccccc2)CC1)S(C)(=O)=O	-1.84
Cc1cc(C(F)(F)F)nn1CC(=O)Nc1ccccc1F	3.74
CCOc1ccc(N2C(=O)c3ccccc3C2=O)cc1	8.19
COc1cc(OC)cc(C2C(C#N)=C(N)OC3=C2C(=O)CC(C)(C)C3)c1 (centres unmarked)	-8.28
CCOC(=O)CSc1nc(-c2ccccc2)cc(-c2ccc(OC)cc2)c1C#N	3.06
CC1CCN(C(=O)CCCN2C(=O)c3cccc4cccc(c34)C2=O)CC1	-7.31
CC1CCCN(C(=O)c2cc3c(O)nc4ccccc4c3s2)C1 (centres unmarked)	6.08
CCOc1ccc(-c2nonc2NC(=O)COc2ccc(C)cc2)cc1OCC	-1.47
Cc1ccc(NC(=O)CCN2CCCCC2)cc1Br	1.27
O=C(Nc1ccc(Cl)cc1C(=O)NCCO)c1ccc(Cl)cc1Cl	-0.67
O=C(CSCc1cnn(-c2ccccc2)c1-n1cccc1)NCCc1ccco1	1.63
Cn1c(=O)[nH]c(=O)c2nc(-c3ccccc3)c(-c3ccccc3)nc21	-2.85
Cc1ccccc1-c1csc(C(=O)N[C@@H](CC(C)C)C(=O)NCC#N)c1	-4.72
CC12CCC(C(=O)Nc3ccncc3)(C(=O)C1=O)C2(C)C (centres unmarked)	-1.65
CCOC(=O)N1CCC(NC(=O)c2cnn(-c3cccc(F)c3)c2C2CCNCC2)CC1	0.882
CCc1cc2c(SCC(=O)c3ccccc3)ncnc2s1	-0.178
CN(C)CCN(Cc1ccccc1)Cc1ccccc1C(F)(F)F	-5.44
COC(=O)c1ccc(OCc2ccccc2Cl)c(OC)c1	-1.4
CCCC[C@H](NC(=O)C(NC(=O)OCc1ccccc1)C1CCCCC1)C(=O)CO (some centres unmarked)	-0.778
CC(C)OCCCNC(=O)C1CCN(c2nc3ccccc3n3cccc23)CC1	3.17

Structure (SMILES)	% Inhibition @ 10 uM [%]
O=C(NCCc1ccc(Cl)cc1)c1cc2c(s1)-c1ccccc1S(=O)(=O)C2	-6.09
CC(=O)C1=C(C)OC(N)=C(C#N)C1c1ccc(C#N)cc1 (centres unmarked)	-1.68
CN(C)CCNC(=O)C1CCCN(C(=O)c2cnn(-c3ccc(F)cc3)c2-n2cccc2)C1 (centres unmarked)	5.56
CCOc1ccc(C(=O)Nc2cnn(Cc3ccccc3)c2)cc1	-1.36
COc1c(Cl)cc(Cl)cc1/C=C(\C#N)c1nn(CCO)c(N)c1C#N	11.7
O=C1C2C3CCC(C3)C2C(=O)N1CN(Cc1ccccc1)CN1C(=O)C2C3CCC(C3)C2C1=O (centres unmarked)	2.43
Cc1ccc(S(=O)(=O)N(CC(=O)N2CCN(C)CC2)c2cc(Cl)cc(Cl)c2)cc1	0.161
CC(CN1CCC(N2CCCCC2)CC1)c1ccccc1 (centres unmarked)	-0.0648
CCC(=O)N1CCN(c2cc(C)c(C(C)=O)cc2F)CC1	2.05
CC(=O)C1=C(C)NC(SCC(=O)Nc2nccs2)=C(C#N)C1c1ccccc1Cl (centres unmarked)	5.37
O=C(Nc1ccc(F)cc1F)c1cccc(F)c1	-4.58
COC(=O)c1cc(S(=O)(=O)N2CCc3ccccc3C2)c[nH]1	2.24
O=c1nc2n(c(O)c1C(c1ccc3c(c1)OCO3)c1c(O)nc3n(c1=O)CCS3)CCS2 (centres unmarked)	-0.984
CC(=O)NC1=NC(=O)/C(=C/c2cc3c(cc2Br)OCO3)S1	-5.07
COc1ccc(N2CCN(C(=O)CN(C)S(=O)(=O)c3ccc(OC)cc3)CC2)cc1	2.22
Cc1nc(SCC(=O)c2ccc(Cl)cc2)c(C#N)c(C)c1C	1.44
CC(CNC(=O)C1CC1c1ccccc1)NC(=O)C1CC1c1ccccc1 (centres unmarked)	0.825
Cc1cc(N(C)C)nc(-c2ccccc2)n1	-3.26
COCCNC(=O)c1cnn2c1NC(c1ccc(OC)cc1)CC2C(F)(F)F (centres unmarked)	1.02
COc1cc(CN2CCN(c3cccc(C(F)(F)F)c3)CC2)cc(Br)c1O	-1.92
